B1: AUCAUCA (DNA:RNA)
RNA: GGGAGACCGGAAUUCAGAUUGUCCAUCAUCAUUAAAUCCCGUCGUAGCCACCA
DNA 1: CAATCTGAATTCCGGTCTCCC
DNA 2: TGGTGGCTACGACGGGATT
B2: AGAACCA (DNA:RNA)
RNA: B1 RNA with U26G, C27A, U29C
DNA 1: CAATCTGAATTCCGGTCTCCC
DNA 2: TGGTGGCTACGACGGGATT
B3: AGUCUAC (DNA:RNA)
RNA: B1 RNA with U26G, C27U, A28C, C30A, A31C
DNA 1: CAATCTGAATTCCGGTCTCCC
DNA 2: TGGTGGCTACGACGGGATT
B4: CCUACGC (DNA:RNA)
RNA: B1 RNA with A25C, U26C, C27U, U29C, C30G, A31C
DNA 1: CAATCTGAATTCCGGTCTCCC
DNA 2: TGGTGGCTACGACGGGATT
B5: GUCGACG (DNA:RNA)
RNA: B1 RNA with A25G, A28G, U29A, A31G
DNA 1: CAATCTGAATTCCGGTCTCCC
DNA 2: TGGTGGCTACGACGGGATT
B6: CUUAUUU (DNA:RNA)
RNA: B1 RNA with A25C, C27U, C30U, A31U
DNA 1: CAATCTGAATTCCGGTCTCCC
DNA 2: TGGTGGCTACGACGGGATT
B7: CGGGCAA (DNA:RNA)
RNA: B1 RNA with A25C, U26G, C27G, A28G, U29C, C30A
DNA 1: CAATCTGAATTCCGGTCTCCC
DNA 2: TGGTGGCTACGACGGGATT
B8: AUUCUAU (DNA:RNA)
RNA: B1 RNA with C27U, A28C, C30A, A31U
DNA 1: CAATCTGAATTCCGGTCTCCC
DNA 2: TGGTGGCTACGACGGGATT
B9: AUAUGUA (DNA:RNA)
RNA: B1 RNA with C27A, A28U, U29G, C30U
DNA 1: CAATCTGAATTCCGGTCTCCC
DNA 2: TGGTGGCTACGACGGGATT
B10: GGAGGGU (DNA:RNA)
RNA: GGGAGACCGGAAUUCAGAUUGUCCGGAGGGUUUAAAUCCCGUCGUAGCCACCA
DNA 1: CAATCTGAATTCCGGTCTCCC
DNA 2: TGGTGGCTACGACGGGATT
B11: CAGUCCG (DNA:RNA)
RNA: B1 RNA with A25C, U26A, C27G, A28U, U29C, A31G
DNA 1: CAATCTGAATTCCGGTCTCCC
DNA 2: TGGTGGCTACGACGGGATT
B12: CACGCGG (DNA:RNA)
RNA: B10 RNA with G25C, G26A, A27C, G29C, U31G
DNA 1: CAATCTGAATTCCGGTCTCCC
DNA 2: TGGTGGCTACGACGGGATT
B13: UCGAAGA (DNA:RNA)
RNA: B1 RNA with A25U, U26C, C27G, U29A, C30G
DNA 1: CAATCTGAATTCCGGTCTCCC
DNA 2: TGGTGGCTACGACGGGATT
B14: GACGUUU (DNA:RNA)
RNA: B10 RNA with G26A, A27C, G29U, G30U
DNA 1: CAATCTGAATTCCGGTCTCCC
DNA 2: TGGTGGCTACGACGGGATT
B15: CUGUAGC (DNA:RNA)
RNA: B1 RNA with A25C, C27G, A28U, U29A, C30G, A31C
DNA 1: CAATCTGAATTCCGGTCTCCC
DNA 2: TGGTGGCTACGACGGGATT
B16: CAUCUUA (DNA:RNA)
RNA: B1 RNA with A25C, U26A, C27U, A28C, C30U
DNA 1: CAATCTGAATTCCGGTCTCCC
DNA 2: TGGTGGCTACGACGGGATT
B17: GUGAGAU (DNA:RNA)
RNA: B10 RNA with G26U, A27G, G28A, G30A
DNA 1: CAATCTGAATTCCGGTCTCCC
DNA 2: TGGTGGCTACGACGGGATT
B18: CCUGAGA (DNA:RNA)
RNA: B10 RNA with G25C, G26C, A27U, G29A, U31A
DNA 1: CAATCTGAATTCCGGTCTCCC
DNA 2: TGGTGGCTACGACGGGATT
B19: UUAAACC (DNA:RNA)
RNA: B1 RNA with A25U, C27A, U29A, A31C
DNA 1: CAATCTGAATTCCGGTCTCCC
DNA 2: TGGTGGCTACGACGGGATT
B20: GCGCUCC (DNA:RNA)
RNA: B1 RNA with A25G, U26C, C27G, A28C, A31C
DNA 1: CAATCTGAATTCCGGTCTCCC
DNA 2: TGGTGGCTACGACGGGATT

Numbering of substitutions follows the chain as printed; changes in the protein carry UniProt numbers. The list shows a part of the results.

The target in this experiment is T1, RBFOX1 RRM (Homo sapiens, UniProt Q9NWB1 109-208).
T1 sequence: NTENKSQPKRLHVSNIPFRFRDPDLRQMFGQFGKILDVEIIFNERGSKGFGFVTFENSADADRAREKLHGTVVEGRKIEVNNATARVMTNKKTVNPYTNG
The experiment in a line: EMSA; HiTS-Eq, 1 nM pool, 10 min; buffer printed only for the single-RNA assays: 10 mM Tris pH 7.5, 150 mM NaCl, 3.4 mM EDTA, 0.001% NP-40, 30 C. To be noted: tags: His6 N-terminal (pET28a); label: 5' 32P. Summed up: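 Purified wild-type or mutant RbFox RRM at increasing concentrations was equilibrated with 1 nM of 5′-radiolabelled RNA carrying 7 randomized nucleotides for 10 min in 50 µL. Unbound RNA was separated by 8% native PAGE and sequenced. Relative association constants came from read-count changes of each RNA species compared with the control reaction, normalised to the cognate motif.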
For the molecule B1, the binding signal was 0.00109 KA relative to UGCAUGU.
With B2, the binding signal was 0.00358 KA relative to UGCAUGU.
B3: the binding signal was 0.00347 KA relative to UGCAUGU.
Then B4, with 0.00459 KA relative to UGCAUGU; and B5, with 0.0133 KA relative to UGCAUGU.
With B6, the binding signal is 0.00591 KA relative to UGCAUGU.
Then B7, with 0.0227 KA relative to UGCAUGU; and B8, with 0.00167 KA relative to UGCAUGU.
As to B9, the binding signal was 0.00513 KA relative to UGCAUGU.
As for B10, the binding signal is 0.0168 KA relative to UGCAUGU.
For the molecule B11, the binding signal was 0.00831 KA relative to UGCAUGU.
For the molecule B12, the binding signal is 0.00376 KA relative to UGCAUGU.
Then B13, with 0.00871 KA relative to UGCAUGU.
As to B14, the binding signal is 0.0167 KA relative to UGCAUGU.
As for B15, the binding signal is 0.0127 KA relative to UGCAUGU.
Turning to B16, the binding signal was 0.00114 KA relative to UGCAUGU.
To B17 belongs 0.0157 KA relative to UGCAUGU; to B18, 0.0128 KA relative to UGCAUGU.
To B19 belongs 0.000916 KA relative to UGCAUGU; to B20, 0.00896 KA relative to UGCAUGU.
